The list shows a part of the results. At the low end of the ranking the order means little.
Target: GST-SBP-SLBP (stem-loop binding protein) (UniProt Q14493)
Experiment: targeted RNA Bind-n-Seq;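 also: DESeq read counts versus GST-SBP nonspecific binding control pulldown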
Settings: RBNS binding buffer: 25 mM Tris pH 7.5, 150 mM KCl, 3 mM MgCl2, 0.1% Tween, 0.5 mg/mL BSA, 1 mM DTT; 27 nM protein, 750 pM RNA pool; temperature not stated; high values mean tight binding

Sequence | binding signal (log2 fold change)
GGUCACGUCUCAAUCAACUCAACUUCAGGAGUUUACUCCUGCAUAUUCAACAGCUCGCAGUCAAG | 0.194
GGUCACGUCUCAAUCAACUCUCAAGAGGGGGGGAAAACCCCUUUACCCUCCUACUCAACAGCUCGCAGUCAAG | -0.52
GGUCACGUCUCAAUCAACUCGUCUUCAGGAGUUUACUCCUGCAAUUUCAACAGCUCGCAGUCAAG | -0.0565
GGUCACGUCUCAAUCAACUCAACUUCCAGGGAAAACCCUGGCAUAUUCAACAGCUCGCAGUCAAG | -0.152
GGUCACGUCUCAAUCAACUCAUCUUCCAGGGAAAACCCUGGUUUACUCAACAGCUCGCAGUCAAG | -0.0503
GGUCACGUCUCAAUCAACUCAAUCCCAGGAGUUUUCUCCUGUAUGUUCAACAGCUCGCAGUCAAG | 0.191
GGUCACGUCUCAAUCAACUCUAUUCCCAGGGAAAACCCUGGCAAACUCAACAGCUCGCAGUCAAG | -0.0282
GGUCACGUCUCAAUCAACUCAUUUUCAGGAGUUUCCUCCUGCUUAGUCAACAGCUCGCAGUCAAG | 0.0303
GGUCACGUCUCAAUCAACUCAACUUCCAGGGAAACCCCUGGCAUUCUCAACAGCUCGCAGUCAAG | 0.0059
GGUCACGUCUCAAUCAACUCUUUUCCAGGAGUUUACUCCUGUAAUUUCAACAGCUCGCAGUCAAG | 0.00294
GGUCACGUCUCAAUCAACUCUUUCGCAGGAGUUUACUCCUGGUAUCUCAACAGCUCGCAGUCAAG | 0.0913
GGUCACGUCUCAAUCAACUCCCUAGAGGGGGGGAAAACCCCUUUACCCUCGUUCUCAACAGCUCGCAGUCAAG | 0.184
GGUCACGUCUCAAUCAACUCCUCUGAGGGGGGGAAAACCCCUUUACCCUCUUUUUCAACAGCUCGCAGUCAAG | 0.0269
GGUCACGUCUCAAUCAACUCCUUCGAGGGGGGGAAAACCCCUUUACCCUCACCAUCAACAGCUCGCAGUCAAG | -0.61
GGUCACGUCUCAAUCAACUCAACGCCAGGAGUUUGCUCCUGUAUAUUCAACAGCUCGCAGUCAAG | 0.012
GGUCACGUCUCAAUCAACUCUUUUUCCAGGGAAAACCCUGGUAGUCUCAACAGCUCGCAGUCAAG | -0.0839
GGUCACGUCUCAAUCAACUCUAUCUCAGGAGUUUCCUCCUGUAAUCUCAACAGCUCGCAGUCAAG | -0.0108
GGUCACGUCUCAAUCAACUCUUCCUCCAGGGAAAACCCUGGUAUAUUCAACAGCUCGCAGUCAAG | 0.164
GGUCACGUCUCAAUCAACUCACAAGAGGGGGGGAAAACCCCUUUGCCCUCGAAAUCAACAGCUCGCAGUCAAG | -0.113

Sequence | binding signal (log2 fold change)
GGUCACGUCUCAAUCAACUCUUCGCCAGGAGUUUUCUCCUGCAUUUUCAACAGCUCGCAGUCAAG | -0.168
GGUCACGUCUCAAUCAACUCCAUAGAGGGGGGGAAAACCCCUUUACCCUCAUAAUCAACAGCUCGCAGUCAAG | -0.148
GGUCACGUCUCAAUCAACUCUUCUUCAGGAGUUUACUCCUGCUUUCUCAACAGCUCGCAGUCAAG | -0.0265
GGUCACGUCUCAAUCAACUCAUUAGAGGGGGGGAAAACCCCUUUACCCUCACAUUCAACAGCUCGCAGUCAAG | 0.258
GGUCACGUCUCAAUCAACUCAUAAGAGGGGGGGAAAACCCCUUUACCCUCACCGUCAACAGCUCGCAGUCAAG | -0.431
GGUCACGUCUCAAUCAACUCUUCUCCCAGGGAAAGCCCUGGCUAUUUCAACAGCUCGCAGUCAAG | -0.111
GGUCACGUCUCAAUCAACUCCAAAGAGGGGGGGAAAACCCCUUUACCCUCAAACUCAACAGCUCGCAGUCAAG | -0.0467
GGUCACGUCUCAAUCAACUCAUUCCCCAGGGAAACCCCUGGCAUACUCAACAGCUCGCAGUCAAG | 0.0461
GGUCACGUCUCAAUCAACUCUAUUUCCAGGGAAAACCCUGGUUUAUUCAACAGCUCGCAGUCAAG | -0.0119
GGUCACGUCUCAAUCAACUCAUCGUCCAGGGAAAACCCUGGCUUAUUCAACAGCUCGCAGUCAAG | 0.0837
GGUCACGUCUCAAUCAACUCAUCGUCAGGAGUUUUCUCCUGUAAUCUCAACAGCUCGCAGUCAAG | 0.0565
GGUCACGUCUCAAUCAACUCCAACGAGGGGGGGAAAACCCCUUUACCCUCACUAUCAACAGCUCGCAGUCAAG | -0.0606
GGUCACGUCUCAAUCAACUCCUUAGAGGGGGGGAAAACCCCUUUACCCUCCAUCUCAACAGCUCGCAGUCAAG | -0.284
GGUCACGUCUCAAUCAACUCUUCUUCCAGGGAAAGCCCUGGUUUAUUCAACAGCUCGCAGUCAAG | -0.251
GGUCACGUCUCAAUCAACUCAAUCUCAGGAGUUUUCUCCUGUAAUCUCAACAGCUCGCAGUCAAG | 0.00759
GGUCACGUCUCAAUCAACUCAUUCCCCAGGGAAACCCCUGGCAUUUUCAACAGCUCGCAGUCAAG | 0.165
GGUCACGUCUCAAUCAACUCAUUCUCCAGGGAAAACCCUGGCUAACUCAACAGCUCGCAGUCAAG | 0.123
GGUCACGUCUCAAUCAACUCUUUCCCAGGAGUUUUCUCCUGUAAUGUCAACAGCUCGCAGUCAAG | -0.191
